In PubChem BioAssay AID1508624 (National Center for Advancing Translational Sciences (NCATS), 2021):
Out of some 48,000 compounds screened, about 120 (0.25%) were called active. Another 4% or so got no clear call; they are omitted. Calls follow the shape of the dose curve; as a rule, active = well fitted activation curve with a large enough effect; inconclusive = small, poorly fitted or top-dose-only effect, or another doubt; inactive = no such curve, though single readings can be large or run the other way. Some of the results follow.

Assay: Primary qHTS for Identification of Small Molecule Activators of Huntingtin-Antisense Promoter Activity; also: nearly all actives have a fitted effect of over 55% in size
Details: HEK293 HTT-AS promoter firefly luciferase reporter, 24 h; series mostly up to 57.5 µM; activity change, positive = activation: at the top concentration
Method in brief: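 HEK293 luciferase promoter-reporter cells (2,500/well) plated 24 h, then compounds added at up to 57.5 uM final for 24 h at 37 °C. Firefly luminescence by Dual-Glo, normalized to vehicle (0%) and zero RLU (-100%).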

Activity change, positive = activation, inactive:
O=S(=O)(c1ccc2[nH]c3c(c2c1)CCCC3)N1CCN(c2cccc(C(F)(F)F)c2)CC1 -25.4%, Cc1cc(C)cc(Nc2nc3ccccc3n3cnnc23)c1 -4.81%, COc1ccc(-c2cc(C(C)=O)c(C)n2CCC(=O)Nc2ccc(C)cc2Cl)cc1 -33.2%, COc1cc(C2N=C(N)Nc3nc4ccccc4n32)ccc1OCC(=O)O (configuration not stated) 1.68%, CCN(C(=O)c1cccn(Cc2ccccc2C)c1=O)c1ccccc1 -3.26%, CCOC(=O)C1CCN(C(=O)Cn2ncc3c4ccccc4n(Cc4ccccc4F)c3c2=O)CC1 -17.5%, CN(C)c1ccc(NC(=O)CN2C(=O)c3ccccc3Sc3ccc(C(=O)N4CCCC4)cc32)cc1 -27.1%, Cc1ccc(NC(=O)CN2C(=O)CCn3nc(-c4cccn4C)cc32)c(Cl)c1 -23.4%, Cc1nnc(NC(=O)CSc2nnc3c(n2)[nH]c2ccccc23)s1 -9.55%, Cc1nn(CCCC(=O)NCc2cccc(Cl)c2)c(=O)c2c1sc1ccccc12 -2.44%, Cc1cccc(N2CCN(CCCNC(=O)c3sc4ncccc4c3-n3cccc3)CC2C)c1 (configuration not stated) -28.1%, Cc1cccc(Nc2nc(N[C@@H]3CCCC[C@H]3N)ncc2C(N)=O)c1 -8.88%, O=C(Cn1c(-c2cccs2)cc2cc(F)ccc21)NCCCN1CCN(c2ccccc2F)CC1 -40.5%, Cc1ccc(F)cc1NC(=O)c1ccc(Cn2nc(N3CCN(c4ccccc4)CC3)ccc2=O)o1 -42.7%, O=c1n(Cc2ccc(F)cc2)nc2n1-c1cc(Cl)ccc1OC2 -9.78%, Cc1ccc(Cc2cnc(NC(=O)C3Cc4ccc(C)cc4C(=O)O3)s2)cc1 (configuration not stated) -1.18%, COc1ccc(/C=C/C(=O)c2ccc(OC)cc2OC)cc1 0.936%, COC(=O)c1cnn(-c2ccc(C(=O)Nc3ccc(OC(F)(F)F)cc3)cc2)c1N -37.6%, CCc1ccc(NC(=O)CN2CCSc3ccc(S(=O)(=O)N4CCCC4)cc32)cc1 -38.7%, COc1ccc(CCNc2nc(-c3ccc(F)cc3)cc(C(F)(F)F)n2)cc1OC -27%, COc1ccc(C(CNC(=O)c2cccc([N+](=O)[O-])c2)N2CCOCC2)cc1 (configuration not stated) -5.07%, CC(C(=O)O)c1ccc(C(=O)c2cccs2)cc1 (configuration not stated) 1.19%, CCOc1ccc(S(=O)(=O)c2cn(C)c3ccccc3c2=O)cc1 8.62%, CC(NC(=O)c1c2c(nc3ccccc13)C(=O)N(C1CCCCC1)C2)c1ccccc1 (configuration not stated) -37.4%, COc1cc(/C=C/c2nc3cc(Cl)ccc3c(=O)n2-c2cccc(C(F)(F)F)c2)cc(OC)c1OC -10.5%, COc1cc2ncnc(Nc3ccc(F)c(Cl)c3)c2cc1OCCCN1CCOCC1, COc1ccc(Cn2c(SCC(=O)Nc3ccc(OC)cc3)nc3ccccc32)cc1 -30.4%, O=C(COCc1cc(-c2ccco2)on1)Nc1cccc(O)c1 5.24%, Cn1c(=O)c(=O)n(C)c2cc(S(=O)(=O)CCC(=O)Nc3cccc(C(F)(F)F)c3)ccc21 -4.95%, Cc1ccc(-c2nc3c(cnn3-c3ccccc3)c(=O)n2-c2cccc(Cl)c2)cc1 5.27% [at 11.5 µM, percent change from vehicle, -100% = no light], CN(C)S(=O)(=O)c1ccc2c(c1)N(CC(=O)N1CCN(c3cccc(Cl)c3)CC1)CCS2 0.459%, COc1cc(OC)c(N(C)C(=O)C2CCCN(c3ncnc4c3nc3n4CCCCC3)C2)cc1Cl (configuration not stated) -27.1%, COc1cc(NC(=O)Nc2nnc(N3CCCCCC3)s2)cc(OC)c1 13.1%, CC1CCCN(Cc2c(O)ccc3c(=O)c(Oc4ccc(C(C)(C)C)cc4)c(C(F)(F)F)oc23)C1 (configuration not stated) -1.36%, CCOc1ccccc1CNC(=O)c1cnc2c(-c3ccc(OCC)c(OCC)c3)c(C)nn2c1C -5.6%, Nc1cccc2c(N)cccc12 -4.3% [at 116 µM, percent change from vehicle, -100% = no light], COc1ccc(NC(=O)C2CCN(c3nc4ccccc4nc3C(F)(F)F)CC2)cc1 9.49%, COc1ccc(-c2cn3nc(N4CCC(C(=O)Nc5ccc(Cl)cc5C)CC4)sc3n2)cc1 -8.57%, COc1ccc(-n2nc(C(=O)NCCc3ccc(OC)c(OC)c3)c3c4ccccc4n(C)c3c2=O)cc1Cl -7.04%, Cc1oc(-c2ccc(C(=O)NCCc3ccc(Cl)cc3)cc2)nc1CSc1ccccc1 -9.57%, O=C(Cn1cc(SCc2ccccc2)c2ccccc21)N1CCCCCC1 12.9%, Cc1ccc(-c2nc(SCC(=O)N3CCc4ccccc43)c3c(=O)n(C)c(=O)n(C)c3n2)cc1 -6.69%, Cc1ccc(N2CCN(c3c(CN4CCCC4)c(=O)oc4ccccc34)CC2)c(C)c1 -11.1%, COCCCNC(=O)c1c(NC(=O)c2cc(=O)c3ccccc3o2)sc2c1CCCC2 0%, Cc1ccc(S(=O)(=O)n2nc(C)c(S(=O)(=O)N3CCC(C)CC3)c2C)cc1 -4.84%, O=C(NCc1ccccc1)c1ccc2c(c1)N(Cc1cccc(Cl)c1)C(=O)c1ccccc1S2(=O)=O -9.49%, Cc1ccc2nc(-c3ccc(Cl)c(NC(=O)c4cccc([N+](=O)[O-])c4C)c3)oc2c1 27.7%, Cc1ccccc1CN1C(=O)c2ccccc2Sc2ccc(C(=O)OCc3ccco3)cc21 -23%, CCOC(=O)C1CCC(CN(Cc2c(Cl)cccc2Cl)S(=O)(=O)c2ccc(Cl)cc2)CC1 (configuration not stated) -28.5%, CCn1ccc2cc(S(=O)(=O)N3CCC(C(=O)NCc4ccc(OC)cc4)CC3)ccc21 -23.1%, COc1ccccc1CNC(=O)C1CCN(S(=O)(=O)c2c(C)noc2/C=C/c2cccs2)CC1 -25.1%, Cc1cc(=O)n(Cc2ccc(F)cc2Cl)c2c1c(C)nn2-c1ccccc1 -7.52%, CCn1c(=O)c2sccc2n2c(CCCC(=O)N3CCN(c4cc(C)ccc4C)CC3)nnc12 -6.36%, Cc1ccn2c(=O)c(C(=O)NCCc3ccc(S(N)(=O)=O)cc3)c(O)nc2c1 -18.1%, COc1ccc(N2C(=O)CSC23C(=O)N(CC(=O)NCc2ccccc2)c2ccccc23)cc1 (configuration not stated) -2.29%, Cc1ccc(NCc2ccccc2-c2nnc(-c3ccccc3Cl)o2)cc1Cl 7.07%, COc1ccc(S(=O)(=O)NC2(C(F)(F)F)NC(=O)N(CCc3ccc(OC)c(OC)c3)C2=O)cc1 (configuration not stated) -3.97%, CS(=O)(=O)NCCc1csc2nc(-c3ccccc3)nn12 -4.22%, COc1cc(C2C(C(=O)OC(C)C)=C(C)N=C3SCCC(=O)N32)ccc1OCc1ccccc1 (configuration not stated) -32%, COc1ccc(OC)c(NC(=O)c2c(NCc3ccc(C)o3)sc3c2CCCCC3)c1 -0.386%, COc1cccc(NC(=O)N(Cc2cn(C)c3ccccc23)C2CCCCC2)c1 -26.8%, COc1ccc(NC(=O)NCc2cccn2Cc2ccc(F)cc2)cc1OC -16.7%, Cc1cc(Nc2ccccc2Cl)n2nc(-c3ccco3)nc2n1 -8.95%, Cc1cc(C)cc(NC(=O)CN2C(=O)CSc3ccc(S(=O)(=O)N4CCCC4)cc32)c1 -21.2%, CCOc1ccc(NC(=O)c2c(NC(=O)c3cccc(C)c3)sc3c2CCC3)cc1 -1.49%, CCOC(=O)c1c(NC(=O)CSc2cn(CCNC(=O)c3ccccc3OC)c3ccccc23)sc2c1CCCC2 -28.5%, O=C(NCC1CCN(Cc2cccc(F)c2)CC1)c1cc2ccc3cccnc3c2[nH]1 -2.26%, CC1=C(c2ccc(C(C)C)cc2)S(=O)(=O)N=C1N1CCC(C(=O)NCc2ccco2)CC1 -13.4%, COc1ccccc1N1CCN(S(=O)(=O)CCNC(=O)COc2ccc(F)cc2)CC1 -16.4%, Cc1ccc(CNC(=O)Cn2c(=O)cc(-c3ccccc3)c3c(C)nn(C)c32)cc1 -7.32%, CCc1ccc(NC(=O)CC2C(=O)N(c3ccc(OC)cc3)C(=O)N2Cc2ccc(OC)cc2)cc1 (configuration not stated) -17%, Cc1c(C(=O)NCCc2ccccc2)cccc1-n1cnc2cccnc21 0.103%, C=C(c1ccc(C(=O)O)cc1)c1cc2c(cc1C)C(C)(C)CCC2(C)C, COc1ccc(CCNc2ncnc3c2c(-c2ccccc2)cn3-c2cccc(Cl)c2)cc1OC -45%, COCCNC(=O)CN1C(=O)COc2ccc(S(=O)(=O)N3CCOCC3)cc21 -0.243%, CCc1ccccc1N(C)C(=O)Nc1cn(CC(C)C)c(=O)c2ccccc12 -5.51%, CCC1CCCCN1S(=O)(=O)c1ccc2c(c1)CCCN2C(C)=O (configuration not stated) -24%, C=Cc1ccc(CSc2nc(-c3ccccc3C)nc3c2Cc2c(CO)cnc(C)c2O3)cc1 -12.9%, CCn1cc(C(=O)OCC(=O)Nc2cccc(Cl)c2C)c(=O)c2ccc(C)nc21 1.1%, CCOc1ccc(CNC(=O)CCn2c(=O)c3cccn3c3cccnc32)cc1 -15.5%, O=C(CSc1nc(=O)n(Cc2ccco2)c2c1CCC2)NCc1ccccc1Cl -8.6%, N#Cc1ccc(NC(=O)COCc2cc(-c3ccc4c(c3)OCO4)on2)cc1 5.55%, COC(=O)c1scc(-c2ccc(C)cc2)c1S(=O)(=O)Nc1ccc(OC(F)(F)F)cc1 -13.4%, Cc1cc(N2CCN(C)CC2)nc2ccc(NC(=O)Nc3ccc(Cl)cc3)cc12 3.82%, CCOc1ccc(N2CC(NC(=O)c3ccc(S(=O)(=O)N4CCOCC4)cc3)CC2=O)cc1 (configuration not stated) -23.2%, Cc1nc2ccn(Cc3cccnc3)c(=O)c2cc1C(=O)NCc1ccc(Cl)cc1 -20.5%, COc1ccccc1CNC(=O)CCCn1nc(C)c2c(C)n(-c3ccc(C)cc3)nc2c1=O -21.9%, COC(=O)c1c(SC)nc2ccccc2c1OCc1ccc(C)cc1C -25.8%, Cc1ccc(-c2cc(C(F)(F)F)n3nc(C(=O)Nc4sc5c(c4C#N)CCC(C)C5)cc3n2)cc1 (configuration not stated) 4.32% [at 11.5 µM, percent change from vehicle, -100% = no light], Cc1ccc2onc(CC(=O)Nc3cc(F)ccc3F)c2c1 16.6%, O=C(CSc1nnc2scc(-c3ccc(Cl)cc3)n12)Nc1ccccc1F -18.1%, CC(CNC(=O)c1ccc(CSc2nc3ccncc3n2Cc2cccc(F)c2)cc1)c1ccccc1 (configuration not stated) -26.6%
